The experiment deals with P388 leukemia ip, CD2F1 mice, survival T/C. Nature of the experiment: NCI In Vivo Anticancer Drug Screen. Data for tumor model P388 Leukemia (intraperitoneal) in CD2F1 (CDF1) mice. Particulars: endpoint: median survival time, higher = longer survival.
The mark [1] stands for this setting: dose: 100.0 mg/kg/injection, schedule: Q01DX005 (ip), vehicle: Klucel (hydroxypropylcellulose) (HPC).
Where [2] appears, read: dose: 12.5 mg/kg/injection, schedule: Q01DX009 (ip), vehicle: saline.

Toxic doses and inconclusive results are not listed. Not every entry of the source has a single result; some have several. This list holds those alone. The source may hold further records. The values listed for one entry repeat one measurement (runs, samples, wells, individuals or studies). What stands in brackets tells the records apart. The letters are not those of the source and start again with each entry.

T/C data for 26 compounds are collected here from PubChem BioAssay AID330 (DTP/NCI, 2004).

As to `Cn1c(N)c(C(=O)/C=C/c2ccccc2)c(=O)n(C)c1=O`, the T/C (dose: 50.0 mg/kg/injection, schedule: Q01DX009 (ip), vehicle: Klucel (hydroxypropylcellulose) (HPC)) was 96 % of control [sample A] and 100 % of control, 113 % of control, 124 % of control [sample B].

Consider `COc1cc2c(cc1OC)C(OC)N(C)c1c-2ccc2cc3c(cc12)OCO3` (stereo not drawn), for which, where the note is “dose: 100.0 mg/kg/injection, schedule: Q04DX003 (ip), vehicle: saline with Tween-80”, the T/C is 109 % of control, 154 % of control [sample A] and 109 % of control, 154 % of control [sample B].

Take `CC(=O)OC1(C)CC(C)C(=O)C(C(O)CC2CC(=O)NC(=O)C2)C1` (stereo not drawn): the T/C is, setting by setting: (dose: 216.0 micrograms/kg/injection, schedule: Q01DX009 (ip), vehicle: saline) 116 % of control and 154 % of control; (dose: 778.0 micrograms/kg/injection, schedule: Q04DX003 (ip), vehicle: saline) 109 % of control and 165 % of control.

For the compound `O=C1C2CC(Cl)C(SSC3CC4C(=O)N(SC(Cl)(Cl)C(Cl)Cl)C(=O)C4CC3Cl)CC2C(=O)N1SC(Cl)(Cl)C(Cl)Cl` (stereo not drawn), the T/C (dose: 25.0 mg/kg/injection, schedule: Q01DX005 (ip), vehicle: saline with Tween-80) is 119 % of control and 166 % of control.

With `COc1cc2cc(c1Cl)N(C)C(=O)/C=C/C1(C)OC1C(C)C1CC(O)(NC(=O)O1)C(OC)/C=C/C=C(\C)C2OC` (stereo not drawn), the T/C (dose: 16.0 micrograms/kg/injection, schedule: Q01DX009 (ip), vehicle: distilled water + alcohol) was 123 % of control and 158 % of control.

For `CCCC(=O)NC1=C(N2CC2)C(=O)C(NC(=O)CCC)=C(N2CC2)C1=O`, the T/C (dose: 3.13 mg/kg/injection, schedule: Q01DX009 (ip), vehicle: saline with Tween-80) was 118 % of control and 150 % of control.

For the compound `CC(C)NC(=O)OCc1c(COC(=O)NC(C)C)c(-c2ccc(Cl)c(Cl)c2)n2c1CCC2`, the T/C was 102 % of control and 197 % of control (dose: 37.5 mg/kg/injection, schedule: Q01DX009 (ip), vehicle: saline with Tween-80); 110 % of control, 182 % of control, 187 % of control under setting [1].

As for `S=P(N1CCCCCC1)(N1CC1)N1CC1`, where the note is “dose: 25.0 mg/kg/injection, schedule: Q01DX009 (ip), vehicle: saline”, the T/C was 112 % of control and 159 % of control.

Take `COc1cc(N(CC(C)Br)CC(C)Br)ccc1N=Nc1ccccc1C(=O)O` (stereo not drawn): under “dose: 0.78 mg/kg/injection, schedule: Q01DX009 (ip), vehicle: saline with Tween-80”, the T/C was 101 % of control and 150 % of control.

For `CC[C@H]1C[C@H]2CN(CCc3c([nH]c4ccccc34)[C@@](C(=O)OC)(c3cc4c(cc3OC)N(C=O)[C@H]3[C@@](O)(C(=O)OC)[C@H](OC(C)=O)[C@]5(CC)CCCN6CC[C@]43[C@@H]65)C2)C1`, the T/C is, setting by setting: (dose: 2.0 mg/kg/injection, schedule: Q01DX001 (ip), vehicle: water) 114 % of control, 153 % of control, 165 % of control; (dose: 4.0 mg/kg/injection, schedule: Q01DX001 (ip), vehicle: water) 123 % of control, 168 % of control, 183 % of control.

For `CCC[CH2][Sn]([Cl])([CH2]CCC)[S]C(=S)NCCNC(=S)[S][Sn]([Cl])([CH2]CCC)[CH2]CCC`, the T/C (dose: 3.13 mg/kg/injection, schedule: Q01DX009 (ip), vehicle: Klucel (hydroxypropylcellulose) (HPC)) is 108 % of control and 151 % of control.

As for `Cc1c2ccncc2c(C)c2c1[nH]c1cc(O)ccc12`, where the note is “dose: 100.0 mg/kg/injection, schedule: Q04DX003 (ip), vehicle: distilled water + Tween-80”, the T/C was 98 % of control and 153 % of control.

For `c1cc2cc(-c3ccc4cc(C5=NCCN5)[nH]c4c3)[nH]c2cc1C1=NCCN1`, under “dose: 100.0 mg/kg/injection, schedule: Q04DX003 (ip), vehicle: saline”, the T/C is 100 % of control and 159 % of control.

As to `S=P(N1CC1)(N1CC1)N1CC1.[Cl-].[Cl-].[NH2-].[NH2-].[Pt+4]`, the T/C was 155 % of control [sample A] and 113 % of control, 122 % of control [sample B] and 123 % of control [sample C] (dose: 3.12 mg/kg/injection, schedule: Q01DX009 (ip), vehicle: saline); 92 % of control [sample A] and 180 % of control [sample B] under setting [2].

Take `Cc1cccc(N(CCOS(C)(=O)=O)CCOS(C)(=O)=O)c1`: the T/C under setting [2] is 100 % of control and 188 % of control.

With `Cc1ccc(NC(=O)N2CC2)cc1NC(=O)N1CC1`, the T/C (dose: 1.56 mg/kg/injection, schedule: Q01DX009 (ip), vehicle: Klucel (hydroxypropylcellulose) (HPC)) is 120 % of control and 199 % of control.

Turning to `CCN(CC)CCNc1ccc([N+](=O)[O-])c2sc3ccccc3c(=O)c12`, where the note is “dose: 200.0 mg/kg/injection, schedule: Q01DX009 (ip), vehicle: saline with Tween-80”, the T/C is 117 % of control and 178 % of control.

With `CNC(=O)OCc1c(COC(=O)NC)c(-c2ccc(OC)cc2)n(C)c1C`, where the note is “dose: 50.0 mg/kg/injection, schedule: Q01DX009 (ip), vehicle: distilled water + Tween-80”, the T/C was 92 % of control and 152 % of control.

Regarding `CCN(CC)CCC(O)(c1ccc2c(c1)OCO2)c1cc(OC)c(OC)c(OC)c1` (stereo not drawn), the T/C under setting [1] was 94 % of control, 100 % of control, 167 % of control.

For the compound `COc1cc(-c2ccc(Nc3ccccc3C(=O)O)c(OC)c2)ccc1N`, the T/C (dose: 200.0 mg/kg/injection, schedule: Q04DX003 (ip), vehicle: saline with Tween-80) was 118 % of control and 150 % of control.

As for `Nc1cc2c(c[n+](CCCCCCC[n+]3cc4c5ccccc5c(N)cc4c4ccccc43)c3ccccc23)c2ccccc12`, the T/C (dose: 0.78 mg/kg/injection, schedule: Q04DX003 (ip), vehicle: other) was 109 % of control and 150 % of control; the T/C (dose: 25.0 mg/kg/injection, schedule: Q04DX003 (ip), vehicle: other) is 95 % of control and 153 % of control.

For `O=P1(N(CCCl)CCCl)NCCCO1` (stereo not drawn), the T/C by setting is: (dose: 37.5 mg/kg/injection, schedule: Q## X001 (ip), vehicle: saline) 119 % of control, 124 % of control, 167 % of control; (dose: 75.0 mg/kg/injection, schedule: Q## X001 (ip), vehicle: saline) 123 % of control, 160 % of control, 197 % of control; (dose: 250.0 mg/kg/injection, schedule: Q04DX002 (ip), vehicle: saline) 109 % of control and 175 % of control.

Consider `Nc1ccc2nc3ccc(=O)cc-3n(-c3ccccc3)c2c1`, for which the T/C (dose: 10.0 mg/kg/injection, schedule: Q01DX009 (ip), vehicle: saline) is 102 % of control and 161 % of control.

Take `Cc1ccc(NCCNCCO)c2c(=O)c3ccc(O)cc3sc12`: the T/C (dose: 100.0 mg/kg/injection, schedule: Q01DX009 (ip), vehicle: saline with Tween-80) is 111 % of control and 154 % of control.

With `CC(=O)Nc1cc(NC(C)=O)cc(N(CCCl)CCCl)c1`, where the note is “dose: 50.0 mg/kg/injection, schedule: Q01DX009 (ip), vehicle: water”, the T/C was 123 % of control and 173 % of control.

For the compound `CN(Cc1cnc2nc(N)nc(N)c2n1)c1ccc(C(=O)NC(CCC(=O)OCc2cc3c(cc2Cl)OCO3)C(=O)OCc2cc3c(cc2Cl)OCO3)cc1` (stereo not drawn), for the setting “dose: 3.75 mg/kg/injection, schedule: Q01DX005 (ip), vehicle: saline with Tween-80”, the T/C is 91 % of control and 188 % of control.
